# Out of some 310,000 compounds screened, about 14,000 (4.5%) showed an effect of 50% or more. The effect is printed as a negative number. This is one part of the list.
# Target: human ether-à-go-go-related gene (hERG) potassium channel (human, UniProt Q12809)
# Test: primary screen, population patch clamp on CHO cells stably expressing hERG
# 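Also: peak tail current of the secondary pulse compared with the same well before compound.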
# human ether-à-go-go-related gene (hERG) potassium channel, sequence (Q12809 whole entry, looked up): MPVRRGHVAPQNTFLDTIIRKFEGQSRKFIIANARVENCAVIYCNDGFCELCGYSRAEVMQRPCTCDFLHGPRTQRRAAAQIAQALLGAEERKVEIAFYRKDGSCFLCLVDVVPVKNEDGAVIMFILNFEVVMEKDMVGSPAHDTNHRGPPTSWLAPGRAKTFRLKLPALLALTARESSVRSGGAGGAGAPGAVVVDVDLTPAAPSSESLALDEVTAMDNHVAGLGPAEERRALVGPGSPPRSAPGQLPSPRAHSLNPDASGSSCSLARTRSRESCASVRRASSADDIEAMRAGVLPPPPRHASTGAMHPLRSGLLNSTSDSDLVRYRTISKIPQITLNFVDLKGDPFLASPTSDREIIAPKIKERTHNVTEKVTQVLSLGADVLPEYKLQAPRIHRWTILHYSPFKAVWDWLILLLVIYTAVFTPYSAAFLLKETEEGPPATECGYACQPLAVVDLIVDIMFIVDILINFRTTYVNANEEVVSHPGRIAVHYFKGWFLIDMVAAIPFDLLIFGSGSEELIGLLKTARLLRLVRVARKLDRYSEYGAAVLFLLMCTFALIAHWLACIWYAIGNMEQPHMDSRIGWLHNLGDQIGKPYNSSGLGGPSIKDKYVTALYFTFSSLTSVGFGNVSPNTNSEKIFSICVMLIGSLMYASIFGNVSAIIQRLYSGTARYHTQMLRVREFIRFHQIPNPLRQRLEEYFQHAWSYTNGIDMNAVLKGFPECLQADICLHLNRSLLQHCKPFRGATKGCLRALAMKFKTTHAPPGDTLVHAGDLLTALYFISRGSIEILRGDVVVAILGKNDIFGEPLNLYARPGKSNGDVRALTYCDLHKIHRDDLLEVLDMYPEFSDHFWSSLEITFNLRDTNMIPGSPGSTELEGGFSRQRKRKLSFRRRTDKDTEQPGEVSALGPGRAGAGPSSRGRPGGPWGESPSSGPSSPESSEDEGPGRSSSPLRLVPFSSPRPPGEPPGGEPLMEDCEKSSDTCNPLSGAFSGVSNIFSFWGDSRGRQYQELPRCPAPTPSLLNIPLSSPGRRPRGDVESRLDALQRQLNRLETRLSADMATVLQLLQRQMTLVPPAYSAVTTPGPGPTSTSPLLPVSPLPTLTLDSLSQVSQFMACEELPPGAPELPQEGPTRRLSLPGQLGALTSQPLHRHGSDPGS
row,Structure (SMILES),"hERG current change (%, negative = inhibition) at 10uM"
1,CCN(CC)CCN=C(C)c1c(O)n(-c2ccccc2OC)c(=O)[nH]c1=O,4.71%
2,NC(=O)c1sc(-c2ccsc2)cc1NS(=O)(=O)c1ccc(C(F)(F)F)cc1,11.7%
3,Cc1cc(NC(=O)CSc2nnc(COc3cccc(C)c3C)n2Cc2ccco2)no1,4.27%
4,CC1CCN(C(=O)Cn2cc(S(=O)(=O)CC(=O)N3CCOCC3)c3ccccc32)CC1,-16.4%
5,Cc1cccc(C(=O)Nc2ccccc2-c2nnn(CC(=O)Nc3ccc4c(c3)OCCO4)n2)c1,-2.64%
6,CC(=O)c1cccc(NC(=O)C2CCCN(S(C)(=O)=O)C2)c1 (stereo not shown),8.02%
7,Cc1ccc(OCC(=O)Nc2ccccc2C(=O)N2CCCCC2)cc1,0.609%
8,Cc1ccccc1-c1cc(-c2ccccc2O)n[nH]1,7.08%
9,CCN1CCN(c2c(/C=C3\SC(=S)N(Cc4ccco4)C3=O)c(C)c(C#N)c(=O)n2C)CC1,0.931%
10,CCN(CC)CCCN(C(=O)c1ccc(OC)cc1)c1nc(-c2ccc(OC)cc2)cs1,-73.7%
11,COc1ccc(C2CC(C(F)(F)F)n3nc(CO)c(Cl)c3N2)cc1OC (stereo not shown),16.5%
12,COCCNC(=O)COc1cccc2c1OC(C)(C)C2,24.5%
13,COc1ccc(-n2nnnc2/C=C\Nc2ccccc2C(=O)c2ccccc2)cc1,6.94%
14,Cc1cccc(N2C(=O)C3C4C=CC(C5CC45)C3C2=O)n1 (stereo not shown),10.6%
15,C/C(=N\OCc1ccccc1)c1c(O)cc(C(C)C)n(-c2ccccc2)c1=O,-3.54%
16,CCOc1cc(C(=O)Nc2ccc(S(=O)(=O)Nc3cnc4ccccc4n3)cc2)cc(OCC)c1OCC,5.11%
17,COc1ccc(C(=O)Nc2cccnc2)cc1OC,12.3%
18,CC(NC(=O)CSCc1ccccc1Br)c1ccccc1 (stereo not shown),-12.3%
19,CCCN(CCC)C(=O)Cn1c(=O)c2sccc2n2c(=S)sc(-c3ccccc3)c12,13.3%
20,Cn1c(CNC(=O)CCNC(=O)c2cccc(Cl)c2)cc(=O)n(C)c1=O,18.7%
21,CN1C(C)(C)CCCC1(C)C.O=C(O)C(O)C(O)C(=O)O,8.57%
22,CC(C)(Oc1ccc(Cl)cc1)C(=O)OCn1nnc2ccccc2c1=O,16.7%
23,CCS(=O)(=O)N1Cc2ccccc2CC1C(=O)Nc1ccc(F)c(F)c1F (stereo not shown),6.02%
24,Nc1nc2n(n1)C(c1ccco1)CC(c1ccc(Cl)cc1)N2 (stereo not shown),-11.1%
25,C/C(O)=C(\C#N)C(=O)Nc1cc(Br)ccc1Br,10.4%
26,Cc1ccccc1CN(C)C(=O)[C@H](Cc1ccccc1)NC(=O)c1ccco1,-4.19%
27,CCc1ccc(C(=O)Nc2ccc(OC)c(S(=O)(=O)N3CCOCC3)c2)cc1,-37.2%
28,Cc1ccc(Nc2nc(N)c([N+](=O)[O-])c(N3CCC(C)CC3)n2)cc1C,7.13%

row,Structure (SMILES),"hERG current change (%, negative = inhibition) at 10uM"
1,CC1CN(C(=O)CN2C(=O)NC3(CCCCCC3)C2=O)CC(C)O1 (stereo not shown),16%
2,CCn1ncc(Br)c1C(=O)Nc1ccc(C(C)C)cc1,9.74%
3,CCCCC1CCC(C(=O)N(C)CC(=O)Nc2cccc(F)c2)CC1 (stereo not shown),12.9%
4,COC(=O)C1=Nc2ccccc2/C1=C\c1c(O)n(-c2ccc(OC)cc2)c(=O)[nH]c1=O,-1.33%
5,Cc1csc2ncc(C(=O)NCc3ccc4c(c3)OCO4)c(=O)n12,-10.7%
6,CCC(C)(C)NC(=S)Nc1ccc(-c2nc3ccc(C)cc3s2)cc1,10.1%
7,CC(=O)c1cccc(NC(=O)c2ccc(NC(=O)CCS(=O)(=O)c3cccs3)cc2)c1,15.8%
8,O=c1c(N2CCCCC2)coc2ccccc12,17.5%
9,Cc1ccc(S(=O)(=O)N2CCC3(CC2)OCCO3)s1,8.41%
10,CCN(CC)Cc1c(C(=O)OC(C)C)nnn1-c1nonc1N,7.56%
11,COc1ccccc1[C@@]1(C)ON(c2ccccc2C(F)(F)F)C1=O,6.06%
12,O=C(Nc1cccc(Cl)c1N1CCOCC1)c1cccs1,-23.5%
13,CC(Oc1ccc2ccc(=O)oc2c1)C(=O)NC(Cc1c[nH]c2ccc(O)cc12)C(=O)O (stereo not shown),6.42%
14,Cc1ccnc2nc(C(=O)OCCOc3ccc(F)cc3)nn12,-35.6%
15,COc1ccc(-n2c(O)c(C=NCCCn3ccnc3)c(=O)[nH]c2=O)cc1,14.1%
16,O=C(NCCO)C(=O)NCC1OCCCN1S(=O)(=O)c1cc(F)ccc1F (stereo not shown),13.6%
17,O=C(Oc1ccc([N+](=O)[O-])cc1)c1cc(-c2ccccc2)nc2ccccc12,8%
18,Cc1nn(Cc2ccccc2)c(C)c1NC(=O)CSc1nc2c(c(C(F)(F)F)n1)CCc1ccccc1-2,-20.5%
19,O=C(O)c1ccc(-c2cccc([N+](=O)[O-])c2)o1,12.4%
20,Cc1nc2ccccc2nc1SCC(=O)N1CCC(C)CC1,1.12%
21,CCC(=O)N1c2ccccc2NC2=C(C(=O)CC(C)(C)C2)C1c1cccnc1 (stereo not shown),20.8%
22,CC(=O)Nc1c(C(=O)C2CC2)oc2ccccc12,-7%
23,CC(=O)Nc1ccc(NC=C(C#N)C#N)cc1,-9.27%
24,Cc1ccc(OCCC(=O)OCC(=O)N2CCN(S(=O)(=O)c3ccc(Cl)cc3)CC2)cc1,-0.425%
25,CCOC(=O)c1c(-c2ccc(C)o2)csc1NC(=O)CSc1nncs1,-16.1%
26,CNC(=O)c1cccc(NC(=O)c2ccccc2OCc2ccccc2)c1,-2.21%
27,COc1ccc(S(=O)(=O)NCC(c2ccc(C)cc2)N2CCN(C)CC2)cc1 (stereo not shown),-51.9%

# — PMC4336329 (PLoS ONE, 2015)
